From PubChem BioAssay AID995 (National Center for Advancing Translational Sciences (NCATS), 2007)
Among all 72,000 compounds or so, about 710 (0.99%) were called active. Inconclusive means that the source gave no clear call. Such entries were picked first, then a sample of the others. Calls follow the shape of the dose curve; as a rule, active = well fitted inhibition curve with a large enough effect; inconclusive = small, poorly fitted or top-dose-only effect; inactive = no such curve, though single readings can be large or run the other way. Potencies of inconclusive entries are left out as doubtful fits.

Assay: qHTS Assay for Inhibitors of the ERK Signaling Pathway using a Homogeneous Screening Assay; also: nearly all actives have a fitted effect of over 55% in size
Details: HEK293-V1b, vasopressin-stimulated pERK AlphaScreen; series mostly up to 57.5 µM
Summary of the method: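 V1b-HEK293 cells; cpd 30 min 37C; 25 nM vasopressin 5 min; lyse 10 min; AlphaScreen beads 5 hr RT. Normalized to DMSO basal and 25 nM vasopressin; AC50 by Hill fit.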
Potency is read from the fitted curve at half-maximal effect; tags tell the direction and shape of the fitted curve.

SMILES	Potency
CN1CCN(c2ncncc2-c2ccc(N(C)C)cc2)CC1	inconclusive [inhibitor, full curve, poor fit]
Cc1cc(C)c2c(CN3CCN(C)CC3)cc(=O)oc2c1	inactive
Cc1ccc(-c2nn(C)c(=O)c3ccccc23)cc1S(=O)(=O)NCCO	inconclusive [inhibitor, single point]
CC(=O)N1CC=CC1(C)C(=O)NCC1CC1 (stereo not drawn)	inactive
Cc1cnc(NC(=O)CSc2nnc(-c3ccccc3)o2)s1	inconclusive [inhibitor, single point]
COc1ccc(CCNc2oc(COc3ccccc3Cl)nc2C#N)cc1OC	inconclusive [inhibitor, single point]
CCN(C(=O)c1cc2cccc(OC)c2oc1=O)c1ccccc1	inconclusive [inhibitor, partial curve, poor fit]
COc1cccc(C2CC(c3ccccc3C)n3nc(N)nc3N2)c1 (stereo not drawn)	inactive
COc1ccc(CNC(=O)c2cnn3c(C(F)F)cc(C)nc23)cc1OC	inconclusive [inhibitor, partial curve]
O=C(CCCn1c(=O)oc2ccccc21)N1CCc2ccccc2C1	inconclusive [inhibitor, single point]
Cc1cc2c(=O)n(Cc3ccco3)c(SCC(=O)N3CCCc4ccccc43)nc2s1	inconclusive [inhibitor, partial curve]
CC(=O)Oc1cc(-c2coc3cc(OC(C)=O)c(OC(C)=O)c(OC(C)=O)c3c2=O)cc(OC(C)=O)c1OC(C)=O	inactive
COc1cc2ncnc(Nc3cccc(Cl)c3)c2cc1OC	active: 20 µM
COC(=O)c1ccccc1NC(=O)C1CCN(C(=O)c2cc(OC)c(OC)c(OC)c2)CC1	inconclusive [inhibitor, partial curve]
O=C(COc1ccccc1Br)c1ccc(O)cc1O	inconclusive [inhibitor, partial curve]
c1ccc(-c2cc(-c3nnc4sc(-c5ccccn5)nn34)[nH]n2)cc1	inconclusive [inhibitor, single point]
C=CCn1c(NC(=O)c2ccco2)c(S(=O)(=O)c2ccccc2)c2nc3ccccc3nc21	inconclusive [inhibitor, partial curve, poor fit]
S=c1[nH]nc(-c2ccc(Br)cc2)n1Cc1ccco1	inconclusive [inhibitor, partial curve]
CCn1c(SCc2nc3ccccc3c(=O)[nH]2)nc2ccccc2c1=O	active: 7.94 µM
COC(=O)N1CCC[C@@]2(CCN(C(c3ccccc3)c3ccccc3)C2)C1	inactive
COc1cc2nc(NCC3CCCO3)n3nc(-c4cccnc4)nc3c2cc1OC (stereo not drawn)	inconclusive [inhibitor, full curve, poor fit]
O=c1cc(-c2ccc(O)c(O)c2)oc2ccccc12	active: 7.94 µM
CC(C)C(=O)Nc1cccc(-c2nc3ccccc3o2)c1	inactive
CC(O)CNc1nc2c(c(=O)n(C)c(=O)n2C)n1Cc1cccc(Br)c1 (stereo not drawn)	inconclusive [inhibitor, full curve, poor fit]
CN(C)c1cccc(NC(=O)Cc2ccc(F)cc2)c1	inconclusive [inhibitor, full curve, poor fit]

SMILES	Potency
O=C(CCSc1nnc(-c2ccncc2)o1)Nc1ccccc1	inconclusive [inhibitor, partial curve]
CCn1c(=O)c(C(=O)NCc2ccccn2)c(O)c2ccccc21	inactive
Cc1ccc(SCc2[nH]nc3c2C2(CCSCC2)C(C#N)=C(N)O3)cc1	inconclusive [inhibitor, partial curve]
CCOc1cc(-c2c(C)c(CC)nc(N)c2C#N)ccc1O	inconclusive [inhibitor, full curve]
CN1CCN(c2ccccc2NC(=O)c2ccc(Br)o2)CC1	active: 20 µM
N#C/C(=C\c1ccc(O)c(O)c1)C(=O)NCCCc1ccccc1	inconclusive [inhibitor, partial curve, poor fit]
COc1ccccc1NC(=O)N1CCCC(c2nc3c(nnn3Cc3ccc(C)cc3)c(=O)[nH]2)C1 (stereo not drawn)	inconclusive [inhibitor, partial curve]
COc1ccc(C(=O)c2ccc(N3CCN(C4CC(=O)NC4=O)CC3)cc2)cc1F (stereo not drawn)	inconclusive [inhibitor, single point]
N#Cc1cccc(-c2nc3cnc(Oc4cccc(Cl)c4)nc3n(C3CC3)c2=O)c1	inconclusive [inhibitor, partial curve]
COc1ccc2[nH]c3ccccc3c2c1	inactive
CC(C)S	inactive
CCOc1ccccc1NC(=O)C1CC2CCCC(C1)C2=O (stereo not drawn)	inconclusive [inhibitor, partial curve, poor fit]
COCCn1c(=O)c(-c2ccccc2)nc2cnc(OC)nc21	inactive
O=C(c1cnccn1)N1CCC[C@@]2(CCN(c3cccc(-c4ccccc4)c3)C2)C1	inconclusive [inhibitor, partial curve]
CC1=CC(C)(C)Nc2cc(C)c(C)cc21	inactive
Cc1cccc(OCC(=O)Nc2ccc3c(c2)OCCO3)c1	inactive
COc1ccc(-c2nnc(CSc3nc4ccccc4c(=O)n3C)o2)cc1OC	inconclusive [inhibitor, full curve, poor fit]
CCC(=O)Nc1cc(OC)c(NC(=O)c2ccccc2)cc1OC	inconclusive [inhibitor, single point]
CCOC(=O)c1c(C)nc2ccccn12	inconclusive [inhibitor, partial curve]
CSc1nnc(-c2ccco2)c(-c2ccco2)n1	inactive
CC(C)COc1cccc(C(=O)Nc2ccc(S(=O)(=O)N3CCOCC3)cc2)c1	inconclusive [inhibitor, full curve, poor fit]
O=C(CSc1nnc(-c2ccco2)o1)N1c2ccccc2CCc2ccccc21	inconclusive [inhibitor, partial curve, poor fit]
O=S(=O)(c1ccccc1Cl)N1CCC(O)(c2ccc3c(c2)OCO3)CC1	active: 31.6 µM
O=C(NCc1ccco1)C1CCN(c2ccc(N3CCOCC3)nn2)CC1	inactive
CCNc1ncc2ncc(=O)n(CCc3ccccc3)c2n1	inconclusive [inhibitor, partial curve]

SMILES	Potency
O=S(=O)(c1cccc2nsnc12)N1CCc2ccccc21	inconclusive [inhibitor, partial curve]
O=C1CCCC2=C1C(c1cn(-c3ccccc3)nc1-c1cccs1)c1c([nH]c(=O)[nH]c1=O)N2 (stereo not drawn)	inconclusive [inhibitor, partial curve]
CCNc1nc(Oc2ccc(C(=O)OCC)cc2)nc(SC)n1	inactive
Cc1ccc(C(=O)Nc2ccc3c(c2)OCO3)cc1S(=O)(=O)N1CCCC1	inconclusive [inhibitor, partial curve]
O=C(CCN1C(=O)c2ccccc2S1(=O)=O)Nc1nc2c(s1)CCCC2	inconclusive [inhibitor, single point]
O=Nc1ccc2oc(=O)ccc2c1	inconclusive [inhibitor, single point]
Cc1ccc2c(c1)N(C(=O)CSc1nncn1C)C(C)(C)c1ssc(=S)c1-2	inconclusive [inhibitor, partial curve]
O=C(CSc1n[nH]c(-c2cccnc2)n1)Nc1ccnc2ccccc12	active: 20 µM
Clc1ccc(OCCn2ccnc2)c2ccccc12	inactive
CCC(=O)N[C@@H]1Cc2ccccc2[C@@H](c2ccccc2)C1	inconclusive [inhibitor, single point]
Cc1noc(C)c1-c1cc(Nc2ccccc2)ncn1	inconclusive [inhibitor, single point]
O=C(Nc1ccc(N2CCCC2)c(Cl)c1)c1ccc(Br)o1	inconclusive [inhibitor, full curve, poor fit]
O=C1C=CC(=O)c2c(O)c(Cl)c(Cl)c(O)c21	inconclusive [inhibitor, single point]
Cc1coc(NC(=O)CSc2nc(-c3ccncc3)cc(C(F)(F)F)c2C#N)n1	inactive
Cc1csc(SCc2c(C(=O)O)oc3ccccc23)n1	inconclusive [inhibitor, single point]
Cc1ccc(C(=O)O[C@@H](C(=O)O)[C@@H](OC(=O)c2ccc(C)cc2)C(=O)O)cc1 (tested in a mixture with another compound)	inactive
FC(F)(F)c1ccccc1-c1nccc(-n2ccnc2)n1	inactive
COC(=O)C1(Cc2ccccc2)C2c3cc(C(=O)N4CCCC4)n(Cc4ccc(OC(F)(F)F)cc4)c3CC2CN1C(=O)c1ccccc1 (stereo not drawn)	inactive
Cc1cccc(CNc2ccnc(-c3ccc(C(=O)N(C)C)cc3)n2)c1	inconclusive [inhibitor, single point]
Cc1cc(C)nc(N2CCC(C(=O)O)CC2)n1	inactive
Cc1ccc(S(=O)(=O)Nc2cc(C)nn2-c2ccccc2)cc1	inactive
COc1ccc2nc3c(c(-c4ccccc4)c2c1)CCC3	inactive
COc1cccc(-c2nnc(SCc3ccc(C#N)cc3)n2Cc2ccco2)c1	inactive
